This is an account of results in PubChem BioAssay AID1794762 (DTP/NCI, 2022).

In the assay the test system is M19-MEL melanoma. Briefly: NCI-60 one-dose screen, 48 h (100 = growth as untreated, 0 = no growth, -100 = all killed). The following applies: 2.5 mM. The procedure:
Growth inhibition of the M19-MEL human tumor cell line is measured as a screen for anti-cancer activity. Cells are grown in 96 well plates and exposed to the test compound for 48 hours. Compounds are tested at a single concentration, which is 10^-5 M for most compounds. The reported endpoint is percent growth (GI% or GIPRCNT), where numbers from 0 - 100% represent growth inhibition, and numbers from -100% - 0 represent cell death. For example, a value of 40 represents 60% growth inhibition. A value of 0 means no net growth occurred over the course of the experiment. A value of -40 indicates 40% of cells at the beginning of the experiment died by the end of the experiment. A value of -100 means all cells are dead at the end of the experiment.
NCI-60 Human Tumor Cell Lines Screen was performed using the standard one-dose NCI protocol, which is described in more detail at https://dtp.cancer.gov/discovery_development/nci-60/default.htm.
Compounds with GIPRCNT values below 10 were considered active. Activity score was based on GIPRCNT using the following formula: […]
Score is 0 for GIPRCNT values of 100 or above, 50 for GIPRCNT values of 0, and 100 for GIPRCNT values of -100.

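Compound tested at a single concentration for 48 hours in 96-well plates; a percent growth value below 10 was scored as active.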 The source holds more than one record for some entries. The list is limited to them. An entry can have further records. This drug was run again and again over the years, at its own concentration, as given; one value stands for one run. Signs of the kind (2×) say how often a value occurs here.

Regarding `O=c1[nH]cc(F)c(=O)[nH]1`, the growth is 25, 14.7, 16.9, -40.5, -29.6, 12.9, 16.6, 8.75, 15.3, -16.1% (runs of 1991) and 16.7, 26.8 (2×), 23.8, 36.8, 2.61, 3.33, 8.52, 7.54, -8.7, 21.8, 9.52, 12.2, 25.5, 7.79, 8.05, 2.57, -0.457, 18.7, 10.2, 8.62, 3.6, 12.8 (2×), 6.49, 89, 20, 16.9, 22, 17.3, 12.7 (2×), 19.2 (2×), 25.7, 14, 16.4, 4.38, 5.05, 0.635, 17.9, 15.5, 15.6, 11.4 (2×), 6.39, 7.56, 11.2, 8.4, 9.81, 22.1, 2.5, 1.97, 5.72, 4.95, 16.3, 11.1, 17.4, 5.2, 6.91, 3.82, 12.1, 10.6 (2×), 14.1, 12.5, 15.7, 3.89, 4.74, 8.83, 8.89, -5.78, 19.9, 19.3, 6.56, 10.3, 20.7, -19, 5.96, 20.5, 13.7, 9.86, 25.1, 9.59, 15.3, 41.8, 21.4, 6.09, 17, 19.8% (runs of 1992).
